From the antibiotic and cytotoxicity screens of Wong et al. (2023)
This is one part of the list.

Test system: HSkMC (human skeletal muscle cells)
Experiment: cytotoxicity call (relative viability < 0.9)
Conditions: 10 µM

| Structure (SMILES) | cytotoxicity call |
| --- | --- |
| C[C@@H]1CN([C@H](C)CO)C(=O)c2cc(NC(=O)CCCN(C)C)ccc2O[C@H]1CN(C)Cc1ccc(Oc2ccccc2)cc1 | inactive |
| CCCN(C)C[C@@H]1OCCCC[C@H](C)Oc2ccc(NC(=O)Cc3ccccc3)cc2C(=O)N([C@H](C)CO)C[C@@H]1C | inactive |
| C[C@@H]1CCCCO[C@H](CN(C)Cc2ccccc2)[C@@H](C)CN([C@@H](C)CO)C(=O)c2cc(NS(=O)(=O)c3ccccc3)ccc2O1 | inactive |
| CO[C@@H](C(=O)N(C)C[C@@H]1OCc2ccccc2-c2c(n(C)c3ccccc23)C(=O)N([C@@H](C)CO)C[C@@H]1C)c1ccccc1 | inactive |
| Cc1cc2nc3c(=O)[nH]c(=O)nc-3n(C[C@H](O)[C@H](O)[C@H](O)CO)c2cc1C | inactive |
| Cc1o[nH]c(=O)c1CC[C@@H](N)C(=O)O | inactive |
| Cc1n[nH]c(=O)nc1NC1CC1 | inactive |
| C[C@@H]1CN([C@H](C)CO)C(=O)c2cc(NC(=O)CCN3CCOCC3)ccc2O[C@@H]1CN(C)C(=O)Nc1ccc(F)cc1 | inactive |
| Cc1ccc(S(=O)(=O)Nc2cccc3c2O[C@@H](CN(C)S(C)(=O)=O)[C@@H](C)CN([C@H](C)CO)C3=O)cc1 | inactive |
| C[C@@H]1CN([C@H](C)CO)C(=O)c2cccc(NC(=O)C3CCOCC3)c2O[C@H]1CN(C)C(=O)Nc1ccc2c(c1)OCO2 | inactive |
| Cc1cc(Cl)cc2sc(N(Cc3ccccn3)C(=O)c3ccc(S(=O)(=O)N4CCCC4)cc3)nc12 | inactive |
| Cc1ccccc1S(=O)(=O)N1C[C@H](O)COC[C@H]2O[C@@H](CC(=O)NCc3ccccc3Cl)CC[C@@H]21 | inactive |
| C[C@@H]1CN([C@@H](C)CO)C(=O)c2cc(NC(=O)Cc3ccccc3)ccc2O[C@@H](C)CCCCO[C@H]1CN(C)CC1CCCCC1 | inactive |
| Cc1ccc(S(=O)(=O)N(C)C[C@@H]2Oc3ncc(Br)cc3C(=O)N([C@@H](C)CO)C[C@@H]2C)cc1 | inactive |
| COc1ccc(S(=O)(=O)N(C)C[C@@H]2Oc3ccc(NS(C)(=O)=O)cc3C(=O)N([C@@H](C)CO)C[C@@H]2C)cc1 | inactive |
| CCCN(C)C[C@@H]1OCCCC[C@@H](C)Oc2ccc(NC(=O)Nc3cccc4ccccc34)cc2C(=O)N([C@H](C)CO)C[C@@H]1C | inactive |
| C[C@@H]1CCCCO[C@@H](CN(C)S(=O)(=O)c2cn(C)cn2)[C@@H](C)CN([C@@H](C)CO)C(=O)c2cc(NS(=O)(=O)c3cn(C)cn3)ccc2O1 | inactive |
| C[C@H]1CN([C@@H](C)CO)C(=O)c2cc(C#Cc3ccccn3)cnc2O[C@H]1CN(C)C(=O)CCN1CCCCC1 | inactive |
| O=C(CN1CCOCC1)N[C@@H]1CC[C@H](CCNC(=O)C2CCC2)O[C@@H]1CO | inactive |
| C[C@H](CO)N1C[C@H](C)[C@@H](CN(C)C(=O)C2CCCCC2)OCCCC[C@H](C)Oc2ccc(NC(=O)Nc3ccc(F)cc3)cc2C1=O | inactive |

| Structure (SMILES) | cytotoxicity call |
| --- | --- |
| C[C@@H]1CCCCO[C@@H](CN(C)C(=O)Nc2ccccc2)[C@@H](C)CN([C@@H](C)CO)C(=O)c2cc(NC(=O)Nc3ccc4c(c3)OCO4)ccc2O1 | inactive |
| Cc1noc(C)c1S(=O)(=O)Nc1ccc2c(c1)C(=O)N([C@H](C)CO)C[C@H](C)[C@H](CN(C)Cc1ccc(Oc3ccccc3)cc1)O2 | inactive |
| C[C@H]1CN([C@@H](C)CO)C(=O)c2cc(NC(=O)CCCN(C)C)ccc2O[C@@H]1CN(C)S(=O)(=O)c1ccc(F)cc1 | inactive |
| Cn1c(=O)c2c(nc(N3CCOCC3)n2CCCN)n(C)c1=O | inactive |
| C[C@H](CO)N1C[C@H](C)[C@@H](CN(C)C(=O)Nc2ccc3c(c2)OCO3)Oc2ccc(NC(=O)c3ccncc3)cc2C1=O | inactive |
| COc1cccc(OC)c1NC(=O)N1[C@@H]2CC[C@@H](C2)[C@H]1c1nc2cccc(OCc3ccc(F)cc3)c2[nH]1 | inactive |
| C[C@@H]1CN([C@@H](C)CO)C(=O)c2cc(NC(=O)Nc3ccc(F)cc3)ccc2O[C@H]1CN(C)S(=O)(=O)c1cn(C)cn1 | inactive |
| C[C@@H]1CN([C@H](C)CO)C(=O)c2cc(NC(=O)NC3CCCCC3)ccc2O[C@H]1CN(C)S(C)(=O)=O | inactive |
| c1cc(CN2CCCNCCNCCCNCC2)ccc1CN1CCCNCCNCCCNCC1 | inactive |
| Cc1ccc(S(=O)(=O)N(C)C[C@@H]2Oc3ccc(NC(=O)c4ccncc4)cc3C(=O)N([C@@H](C)CO)C[C@H]2C)cc1 | inactive |
| C[C@H]1CN([C@@H](C)CO)C(=O)c2cccc(NS(=O)(=O)c3ccc(F)cc3)c2O[C@@H]1CN(C)S(=O)(=O)c1ccc(F)cc1 | inactive |
| CC[C@@H](C)c1ccc(NC(=O)c2ccc(N(CC)CC)cc2)cc1 | inactive |
| C[C@@H]1CN([C@H](C)CO)C(=O)CCCn2nncc2CO[C@@H]1CN(C)Cc1ccc2c(c1)OCCN2C | inactive |
| C[C@@H]1CN([C@H](C)CO)C(=O)c2cc(NC(=O)Nc3ccc4c(c3)OCO4)ccc2O[C@@H]1CN(C)Cc1ccc(-c2ccccc2)cc1 | inactive |
| C[C@@H]1CN([C@@H](C)CO)C(=O)c2cc(NC(=O)NC3CCCCC3)ccc2O[C@@H](C)CCCCO[C@H]1CN(C)S(=O)(=O)c1ccccc1 | inactive |
| O=C1c2c(O)cccc2Cc2cccc(O)c21 | inactive |
| Cc1noc(C)c1NC(=O)Nc1ccc2c(c1)C(=O)N([C@H](C)CO)C[C@@H](C)[C@H](CN(C)C(=O)Nc1ccc3c(c1)OCO3)OCCCC[C@@H](C)O2 | inactive |
| C[C@@H]1CN([C@H](C)CO)C(=O)c2cc(NS(=O)(=O)c3ccccc3)ccc2O[C@@H](C)CCCCO[C@@H]1CN(C)CC1CCCCC1 | inactive |
| Nc1cc[nH]c(=O)n1 | inactive |
| CO[C@H]1O[C@H](CO)[C@@H](OC(=O)Nc2ccccc2-c2ccccc2)[C@H](OC(=O)Nc2ccc3c(c2)OCO3)[C@@H]1OC(=O)Nc1ccc2c(c1)OCO2 | inactive |
